Some of the results follow.
Columns and labels:
Assay in all cases: glycan array binding signal (z-score within array); higher = stronger binding
Details in all cases: glycan notation: IUPAC condensed, linker removed
[1] = molecular target: Fuc(a1-2)[Gal(a1-3)]Gal(b1-4)[Fuc(a1-3)]GlcNAc(b1-3)GalNAc
In short: (§1)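 The binding signal is a Z-score computed within each array. Data were drawn from 3228 arrays in the Consortium for Functional Glycomics database, restricted to those with a known protein sequence. Scores were averaged over arrays of the same protein sequence at different concentrations or buffers, and over linkers, and negative values can be taken as non-binding.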

[2] = molecular target: Fuc(a1-2)[Gal(a1-4)]Gal(b1-4)GlcNAc
In short: as §1

[3] = molecular target: Fuc(a1-2)[GalNAc(a1-3)]Gal
In short: as §1

[4] = molecular target: Fuc(a1-2)[GalNAc(a1-3)]Gal(b1-3)GalNAc(a1-3)[Fuc(a1-2)]Gal(b1-4)GlcNAc
In short: as §1

[5] = molecular target: Fuc(a1-2)[GalNAc(a1-3)]Gal(b1-3)GalNAc(b1-3)Gal(a1-4)Gal(b1-4)Glc
In short: as §1

[6] = molecular target: Fuc(a1-2)[GalNAc(a1-3)]Gal(b1-3)GlcNAc
In short: as §1

[7] = molecular target: Fuc(a1-2)[GalNAc(a1-3)]Gal(b1-3)GlcNAc(b1-2)Man(a1-3)[Fuc(a1-2)[GalNAc(a1-3)]Gal(b1-3)GlcNAc(b1-2)Man(a1-6)]Man(b1-4)GlcNAc(b1-4)GlcNAc
In short: as §1

[8] = molecular target: Fuc(a1-2)[GalNAc(a1-3)]Gal(b1-3)GlcNAc(b1-2)Man(a1-3)[Fuc(a1-2)[GalNAc(a1-3)]Gal(b1-3)GlcNAc(b1-2)Man(a1-6)]Man(b1-4)GlcNAc(b1-4)[Fuc(a1-6)]GlcNAc
In short: as §1

[9] = molecular target: Fuc(a1-2)[GalNAc(a1-3)]Gal(b1-3)GlcNAc(b1-3)GalNAc
In short: as §1

[10] = molecular target: Fuc(a1-2)[GalNAc(a1-3)]Gal(b1-3)GlcNAc(b1-6)GalNAc
In short: as §1

[11] = molecular target: Fuc(a1-2)[GalNAc(a1-3)]Gal(b1-4)Glc
In short: as §1

[12] = molecular target: Fuc(a1-2)[GalNAc(a1-3)]Gal(b1-4)GlcNAc
In short: as §1

[13] = molecular target: Fuc(a1-2)[GalNAc(a1-3)]Gal(b1-4)GlcNAc(b1-2)Man
In short: as §1

[14] = molecular target: Fuc(a1-2)[GalNAc(a1-3)]Gal(b1-4)GlcNAc(b1-2)Man(a1-3)[Fuc(a1-2)[GalNAc(a1-3)]Gal(b1-4)GlcNAc(b1-2)Man(a1-6)]Man(b1-4)GlcNAc(b1-4)GlcNAc
In short: as §1

[15] = molecular target: Fuc(a1-2)[GalNAc(a1-3)]Gal(b1-4)GlcNAc(b1-2)Man(a1-3)[Fuc(a1-2)[GalNAc(a1-3)]Gal(b1-4)GlcNAc(b1-2)Man(a1-6)]Man(b1-4)GlcNAc(b1-4)[Fuc(a1-6)]GlcNAc
In short: as §1

[16] = molecular target: Fuc(a1-2)[GalNAc(a1-3)]Gal(b1-4)GlcNAc(b1-3)Gal(b1-4)GlcNAc
In short: as §1

[17] = molecular target: Fuc(a1-2)[GalNAc(a1-3)]Gal(b1-4)GlcNAc(b1-3)Gal(b1-4)GlcNAc(b1-3)Gal(b1-4)GlcNAc
In short: as §1

[18] = molecular target: Fuc(a1-2)[GalNAc(a1-3)]Gal(b1-4)GlcNAc(b1-3)GalNAc
In short: as §1

[19] = molecular target: Fuc(a1-2)[GalNAc(a1-3)]Gal(b1-4)GlcNAc(b1-3)[Fuc(a1-2)[GalNAc(a1-3)]Gal(b1-4)GlcNAc(b1-6)]GalNAc
In short: as §1

[20] = molecular target: Fuc(a1-2)[GalNAc(a1-3)]Gal(b1-4)GlcNAc(b1-6)GalNAc
In short: as §1

[21] = molecular target: Fuc(a1-2)[GalNAc(a1-3)]Gal(b1-4)[Fuc(a1-3)]GlcNAc
In short: as §1

[22] = molecular target: Fuc(a1-2)[GalNAc(a1-3)]Gal(b1-4)[Fuc(a1-3)]GlcNAc(b1-3)GalNAc
In short: as §1

[23] = molecular target: Fuc(a1-2)[GalNAc(a1-4)]Gal(b1-4)GlcNAc
In short: as §1

[24] = molecular target: Fuc(a1-2)[GalNAc(b1-3)]Gal
In short: as §1

Fuc(a1-3)GlcNAc = molecular target: Fuc(a1-3)GlcNAc
In short: as §1

[25] = molecular target: Fuc(a1-3)[Gal(b1-4)]Glc6S
In short: as §1

[26] = molecular target: Fuc(a1-3)[Gal(b1-4)]GlcNAc
In short: as §1

[27] = molecular target: Fuc(a1-3)[Gal(b1-4)]GlcNAc(b1-2)Man
In short: as §1

[28] = molecular target: Fuc(a1-3)[Gal(b1-4)]GlcNAc(b1-2)Man(a1-3)[Fuc(a1-3)[Gal(b1-4)]GlcNAc(b1-2)Man(a1-6)]Man(b1-4)GlcNAc(b1-4)GlcNAc
In short: as §1

[29] = molecular target: Fuc(a1-3)[Gal(b1-4)]GlcNAc(b1-2)Man(a1-3)[Fuc(a1-3)[Gal(b1-4)]GlcNAc(b1-2)Man(a1-6)]Man(b1-4)GlcNAc(b1-4)[Fuc(a1-6)]GlcNAc
In short: as §1

[30] = molecular target: Fuc(a1-3)[Gal(b1-4)]GlcNAc(b1-3)Gal(b1-3)[Fuc(a1-4)]GlcNAc
In short: as §1

[31] = molecular target: Fuc(a1-3)[Gal(b1-4)]GlcNAc(b1-3)Gal(b1-4)[Fuc(a1-3)]GlcNAc
In short: as §1

[32] = molecular target: Fuc(a1-3)[Gal(b1-4)]GlcNAc(b1-3)Gal(b1-4)[Fuc(a1-3)]GlcNAc(b1-3)Gal(b1-4)[Fuc(a1-3)]GlcNAc
In short: as §1

[33] = molecular target: Fuc(a1-3)[Gal(b1-4)]GlcNAc(b1-3)GalNAc
In short: as §1

[34] = molecular target: Fuc(a1-3)[Gal(b1-4)]GlcNAc(b1-6)GalNAc
In short: as §1

[35] = molecular target: Fuc(a1-3)[Gal(b1-4)]GlcNAc(b1-6)[Gal(b1-3)GlcNAc(b1-3)]Gal(b1-4)Glc
In short: as §1

[36] = molecular target: Fuc(a1-3)[Gal(b1-4)]GlcNAc6S
In short: as §1

[37] = molecular target: Fuc(a1-3)[Gal3S(b1-4)]Glc
In short: as §1

B1: DC-Sign (Homo sapiens), Q9NNX6 (protein)
chain: MSDSKEPRLQQLGLLEEEQLRGLGFRQTRGYKSLAGCLGHGPLVLQLLSFTLLAGLLVQVSKVPSSISQEQSRQDAIYQNLTQLKAAVGELSEKSKLQEIYQELTQLKAAVGELPEKSKLQEIYQELTRLKAAVGELPEKSKLQEIYQELTWLKAAVGELPEKSKMQEIYQELTRLKAAVGELPEKSKQQEIYQELTRLKAAVGELPEKSKQQEIYQELTRLKAAVGELPEKSKQQEIYQELTQLKAAVERLCHPCPWEWTFFQGNCYFMSNSQRNWHDSITACKEVGAQLVVIKSAEEQNFLQLQSSRSNRFTWMGLSDLNQEGTWQWVDGSPLLPSFKQYWNRGEPNNVGEEDCAEFSGNGWNDDKCNLAKFWICKKSAASCSRDEEQFLSPAPATPNPPPA
B1 was tested, and the “glycan array binding signal (z-score)” value [1] was -0.164, the “glycan array binding signal (z-score)” value [2] was -0.059 and the “glycan array binding signal (z-score)” value [3] was -0.104. For the same binder, the “glycan array binding signal (z-score)” value [4] was -0.193, the “glycan array binding signal (z-score)” value [5] was -0.068 and the “glycan array binding signal (z-score)” value [6] was -0.122. For the same binder, the “glycan array binding signal (z-score)” value [7] was -0.186, the “glycan array binding signal (z-score)” value [8] was -0.082 and the “glycan array binding signal (z-score)” value [9] was -0.164. The “glycan array binding signal (z-score)” value [10] was -0.18, the “glycan array binding signal (z-score)” value [11] was -0.052 and the “glycan array binding signal (z-score)” value [12] was -0.065. For the same binder, the “glycan array binding signal (z-score)” value [13] was -0.162, the “glycan array binding signal (z-score)” value [14] was -0.161 and the “glycan array binding signal (z-score)” value [15] was -0.049. The “glycan array binding signal (z-score)” value [16] was -0.129, the “glycan array binding signal (z-score)” value [17] was -0.15 and the “glycan array binding signal (z-score)” value [18] was -0.15. For the same binder, the “glycan array binding signal (z-score)” value [19] was -0.189, the “glycan array binding signal (z-score)” value [20] was -0.2 and the “glycan array binding signal (z-score)” value [21] was 0.795. The “glycan array binding signal (z-score)” value [22] was 0.298, the “glycan array binding signal (z-score)” value [23] was 0.118 and the “glycan array binding signal (z-score)” value [24] was -0.172. The “glycan array binding signal (z-score)” value (Fuc(a1-3)GlcNAc) was -0.093, the “glycan array binding signal (z-score)” value [25] was -0.122 and the “glycan array binding signal (z-score)” value [26] was 0.575. For the same binder, the “glycan array binding signal (z-score)” value [27] was -0.16, the “glycan array binding signal (z-score)” value [28] was 1.29 and the “glycan array binding signal (z-score)” value [29] was -0.193. The “glycan array binding signal (z-score)” value [30] was 5.28, the “glycan array binding signal (z-score)” value [31] was 2.48 and the “glycan array binding signal (z-score)” value [32] was 8.36. For the same binder, the “glycan array binding signal (z-score)” value [33] was 0.036, the “glycan array binding signal (z-score)” value [34] was -0.133 and the “glycan array binding signal (z-score)” value [35] was 0.082. For the same binder, the “glycan array binding signal (z-score)” value [36] was -0.065 and the “glycan array binding signal (z-score)” value [37] was -0.13.

Reference: the supplement of paper PMC8728848
